This note sets out measurements from paper PMC10586699.

Protein sequences, listed by entry. Tags and fused reporters are not part of them. Lines headed by an entry give the natural chain unless they say otherwise; changes in a name come on top.
UniProt Q06168: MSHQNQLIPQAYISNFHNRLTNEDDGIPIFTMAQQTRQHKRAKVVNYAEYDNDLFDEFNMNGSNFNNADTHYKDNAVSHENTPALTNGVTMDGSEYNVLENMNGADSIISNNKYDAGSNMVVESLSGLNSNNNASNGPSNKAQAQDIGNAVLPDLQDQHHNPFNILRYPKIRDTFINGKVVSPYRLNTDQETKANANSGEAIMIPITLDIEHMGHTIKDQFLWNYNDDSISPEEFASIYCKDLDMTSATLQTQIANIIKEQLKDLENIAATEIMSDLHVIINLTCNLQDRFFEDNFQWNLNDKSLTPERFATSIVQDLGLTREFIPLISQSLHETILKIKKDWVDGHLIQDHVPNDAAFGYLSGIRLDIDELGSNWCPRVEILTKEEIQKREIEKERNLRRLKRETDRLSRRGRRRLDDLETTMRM

The target of assay [1] is T1, Rep1 fused to the Gal4 DNA binding domain (yeast 2-micron plasmid (Saccharomyces)) (UniProt P03871).
T1 sequence: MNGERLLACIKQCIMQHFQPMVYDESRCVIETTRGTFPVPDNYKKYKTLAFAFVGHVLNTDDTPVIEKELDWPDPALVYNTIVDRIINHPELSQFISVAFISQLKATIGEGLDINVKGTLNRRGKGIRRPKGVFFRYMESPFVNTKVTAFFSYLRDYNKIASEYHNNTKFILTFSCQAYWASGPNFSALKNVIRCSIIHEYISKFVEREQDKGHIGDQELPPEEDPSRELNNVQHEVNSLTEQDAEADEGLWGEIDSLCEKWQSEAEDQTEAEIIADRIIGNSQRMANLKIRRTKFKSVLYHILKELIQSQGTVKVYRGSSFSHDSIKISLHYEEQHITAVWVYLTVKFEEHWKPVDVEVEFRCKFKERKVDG
Kind of assay: two-hybrid; Gal4-based Matchmaker Gold Two-hybrid System (Clontech); diploids from mating of bait and prey strains, serial dilutions spotted; reporters HIS3 (with 3-AT), MEL1 (X-α-gal), AUR1-C (Aureobasidin A); [Cir+] and [Cir0] hosts.

Assay [2] concerns the target T2, Rep2 expressed in E. coli (yeast 2-micron plasmid (Saccharomyces)) (UniProt P03872).
T2 sequence: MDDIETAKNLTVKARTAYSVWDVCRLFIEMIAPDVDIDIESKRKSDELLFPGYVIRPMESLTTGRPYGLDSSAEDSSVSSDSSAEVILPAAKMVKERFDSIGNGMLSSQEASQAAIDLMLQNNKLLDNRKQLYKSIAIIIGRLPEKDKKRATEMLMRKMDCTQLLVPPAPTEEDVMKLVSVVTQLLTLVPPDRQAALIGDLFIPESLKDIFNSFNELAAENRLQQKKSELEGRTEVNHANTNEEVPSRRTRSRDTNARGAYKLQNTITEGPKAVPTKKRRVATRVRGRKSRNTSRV
Kind of assay: co-IP; proteins expressed in E. coli individually or in pairs; extracts immunoprecipitated with Anti-His or Anti-GST antibodies (reciprocal); western blot.

Assay [3] deals with T3, Rep1 expressed in E. coli (yeast 2-micron plasmid (Saccharomyces)) (UniProt P03871).
T3 sequence: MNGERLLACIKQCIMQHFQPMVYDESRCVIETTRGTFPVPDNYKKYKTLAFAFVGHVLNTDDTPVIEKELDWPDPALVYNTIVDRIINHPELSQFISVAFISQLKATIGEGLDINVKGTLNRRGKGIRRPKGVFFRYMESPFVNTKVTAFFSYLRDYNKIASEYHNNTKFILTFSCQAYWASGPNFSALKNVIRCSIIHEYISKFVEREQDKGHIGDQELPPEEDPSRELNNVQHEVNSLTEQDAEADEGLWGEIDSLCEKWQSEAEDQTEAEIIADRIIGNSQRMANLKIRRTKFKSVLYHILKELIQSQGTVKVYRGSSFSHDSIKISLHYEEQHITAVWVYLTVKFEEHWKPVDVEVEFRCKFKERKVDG
The description is as above.

For assay [4], the target named is T4, Rep2 fused to the Gal4 DNA binding domain (yeast 2-micron plasmid (Saccharomyces)) (UniProt P03872).
T4 sequence: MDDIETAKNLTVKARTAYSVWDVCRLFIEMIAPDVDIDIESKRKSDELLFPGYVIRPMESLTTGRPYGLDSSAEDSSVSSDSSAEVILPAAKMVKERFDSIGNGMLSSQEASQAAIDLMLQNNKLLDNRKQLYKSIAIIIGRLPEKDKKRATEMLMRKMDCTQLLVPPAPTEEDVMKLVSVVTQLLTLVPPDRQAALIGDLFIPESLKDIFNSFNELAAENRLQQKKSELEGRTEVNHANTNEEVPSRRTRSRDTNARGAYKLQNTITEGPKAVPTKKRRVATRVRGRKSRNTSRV
Kind of assay: two-hybrid; Gal4-based Matchmaker Gold Two-hybrid System (Clontech); diploids from mating of bait and prey strains, serial dilutions spotted; reporters HIS3 (with 3-AT), MEL1 (X-α-gal), AUR1-C (Aureobasidin A); [Cir+] and [Cir0] hosts.

Assay [5] deals with T1, Rep1 fused to the Gal4 DNA binding domain (yeast 2-micron plasmid (Saccharomyces)). Kind of assay: two-hybrid; screen of a yeast cDNA library with Rep1.
For assay [6], the target named is T4, Rep2 fused to the Gal4 DNA binding domain (yeast 2-micron plasmid (Saccharomyces)). In words: two-hybrid; Gal4-based Matchmaker Gold Two-hybrid System (Clontech); diploids from mating of bait and prey strains, serial dilutions spotted; reporters HIS3 (with 3-AT), MEL1 (X-α-gal), AUR1-C (Aureobasidin A); [Cir+] and [Cir0] hosts. This is another data set of the same source.

Assay [7] addresses T5, HA-tagged Rep1 expressed in yeast (yeast 2-micron plasmid (Saccharomyces)) (UniProt P03871).
T5 sequence: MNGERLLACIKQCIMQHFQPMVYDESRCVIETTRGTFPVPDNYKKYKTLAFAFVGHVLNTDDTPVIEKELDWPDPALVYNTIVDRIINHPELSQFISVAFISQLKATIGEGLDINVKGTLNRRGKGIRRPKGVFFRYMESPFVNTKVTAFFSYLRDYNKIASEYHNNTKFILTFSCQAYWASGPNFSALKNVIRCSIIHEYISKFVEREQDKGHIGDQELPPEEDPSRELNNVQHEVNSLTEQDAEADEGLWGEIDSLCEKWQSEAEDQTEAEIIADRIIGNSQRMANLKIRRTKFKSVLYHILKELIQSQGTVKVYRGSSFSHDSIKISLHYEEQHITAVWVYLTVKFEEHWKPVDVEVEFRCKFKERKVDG
In words: co-IP; yeast extracts; primary enrichment with anti-HA (Rep1), anti-Myc (Rep2) or anti-CBP (Rsc2-CBP or Rsc1-CBP); western blot with each of these antibodies.

Assay [8] concerns the target T1, Rep1 fused to the Gal4 DNA binding domain (yeast 2-micron plasmid (Saccharomyces)). In words: two-hybrid; Gal4-based Matchmaker Gold Two-hybrid System (Clontech); diploids from mating of bait and prey strains, serial dilutions spotted; reporters HIS3 (with 3-AT), MEL1 (X-α-gal), AUR1-C (Aureobasidin A); [Cir+] and [Cir0] hosts. The source holds these as a separate data set.

Read-outs that look alike come from different tables or passages of the source. These are yes or no findings as the source states them, for the method shown. For some of these results: In cells and extracts the contact can be indirect. Some entries that bind do so weakly or less than the wild type. Tags and fused reporters may be left off the sequences shown.

Regarding “Sfh1 fused to the Gal4 activation domain (from UniProt Q06168 1-426)”, the binding result in assay [1] is recorded as “binds”.

As for “Sfh1(Δ1–278) expressed in E. coli (from UniProt Q06168 279-426) (domain or fragment)”, the binding result in assay [2] is “no binding”; in assay [3] it was “binds”.

In the case of “Sfh1(Δ1–278) fused to the Gal4 activation domain (from UniProt Q06168 279-426) (domain or fragment)”, the binding entry is on record as “binds” in assay [1], “no binding” in assay [4] and “binds” in assay [5].

For “full-length Sfh1 expressed in E. coli (from UniProt Q06168 1-426)”, the binding result in assay [3] is given as “binds”.

B1: Rep1 fused to the Gal4 activation domain (protein, UniProt P03871 1-373)
chain: MNGERLLACIKQCIMQHFQPMVYDESRCVIETTRGTFPVPDNYKKYKTLAFAFVGHVLNTDDTPVIEKELDWPDPALVYNTIVDRIINHPELSQFISVAFISQLKATIGEGLDINVKGTLNRRGKGIRRPKGVFFRYMESPFVNTKVTAFFSYLRDYNKIASEYHNNTKFILTFSCQAYWASGPNFSALKNVIRCSIIHEYISKFVEREQDKGHIGDQELPPEEDPSRELNNVQHEVNSLTEQDAEADEGLWGEIDSLCEKWQSEAEDQTEAEIIADRIIGNSQRMANLKIRRTKFKSVLYHILKELIQSQGTVKVYRGSSFSHDSIKISLHYEEQHITAVWVYLTVKFEEHWKPVDVEVEFRCKFKERKVDG
As for B1, the binding result in assay [6] is “binds”.

B2: Myc-tagged Rep2 expressed in yeast (protein, UniProt P03872 1-296)
chain: MDDIETAKNLTVKARTAYSVWDVCRLFIEMIAPDVDIDIESKRKSDELLFPGYVIRPMESLTTGRPYGLDSSAEDSSVSSDSSAEVILPAAKMVKERFDSIGNGMLSSQEASQAAIDLMLQNNKLLDNRKQLYKSIAIIIGRLPEKDKKRATEMLMRKMDCTQLLVPPAPTEEDVMKLVSVVTQLLTLVPPDRQAALIGDLFIPESLKDIFNSFNELAAENRLQQKKSELEGRTEVNHANTNEEVPSRRTRSRDTNARGAYKLQNTITEGPKAVPTKKRRVATRVRGRKSRNTSRV
As for B2, the binding entry in assay [7] is “binds”.

B3: Rep2 fused to the Gal4 activation domain (protein, UniProt P03872 1-296)
chain: MDDIETAKNLTVKARTAYSVWDVCRLFIEMIAPDVDIDIESKRKSDELLFPGYVIRPMESLTTGRPYGLDSSAEDSSVSSDSSAEVILPAAKMVKERFDSIGNGMLSSQEASQAAIDLMLQNNKLLDNRKQLYKSIAIIIGRLPEKDKKRATEMLMRKMDCTQLLVPPAPTEEDVMKLVSVVTQLLTLVPPDRQAALIGDLFIPESLKDIFNSFNELAAENRLQQKKSELEGRTEVNHANTNEEVPSRRTRSRDTNARGAYKLQNTITEGPKAVPTKKRRVATRVRGRKSRNTSRV
B3: the binding entry in assay [8] is listed as “binds”.
